Measurements taken from PMC4336329 (PLoS ONE, 2015).
The whole screen tested about 310,000 compounds, of which about 14,000 (4.5%) showed an effect of 50% or more. Effects have a minus sign here. Some of the results follow.

Molecular target: human ether-à-go-go-related gene (hERG) potassium channel (human, UniProt Q12809)
Experiment: primary screen, population patch clamp on CHO cells stably expressing hERG
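Note: peak tail current of the secondary pulse compared with the same well before compound.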

Sequence of human ether-à-go-go-related gene (hERG) potassium channel (Q12809 whole entry, looked up): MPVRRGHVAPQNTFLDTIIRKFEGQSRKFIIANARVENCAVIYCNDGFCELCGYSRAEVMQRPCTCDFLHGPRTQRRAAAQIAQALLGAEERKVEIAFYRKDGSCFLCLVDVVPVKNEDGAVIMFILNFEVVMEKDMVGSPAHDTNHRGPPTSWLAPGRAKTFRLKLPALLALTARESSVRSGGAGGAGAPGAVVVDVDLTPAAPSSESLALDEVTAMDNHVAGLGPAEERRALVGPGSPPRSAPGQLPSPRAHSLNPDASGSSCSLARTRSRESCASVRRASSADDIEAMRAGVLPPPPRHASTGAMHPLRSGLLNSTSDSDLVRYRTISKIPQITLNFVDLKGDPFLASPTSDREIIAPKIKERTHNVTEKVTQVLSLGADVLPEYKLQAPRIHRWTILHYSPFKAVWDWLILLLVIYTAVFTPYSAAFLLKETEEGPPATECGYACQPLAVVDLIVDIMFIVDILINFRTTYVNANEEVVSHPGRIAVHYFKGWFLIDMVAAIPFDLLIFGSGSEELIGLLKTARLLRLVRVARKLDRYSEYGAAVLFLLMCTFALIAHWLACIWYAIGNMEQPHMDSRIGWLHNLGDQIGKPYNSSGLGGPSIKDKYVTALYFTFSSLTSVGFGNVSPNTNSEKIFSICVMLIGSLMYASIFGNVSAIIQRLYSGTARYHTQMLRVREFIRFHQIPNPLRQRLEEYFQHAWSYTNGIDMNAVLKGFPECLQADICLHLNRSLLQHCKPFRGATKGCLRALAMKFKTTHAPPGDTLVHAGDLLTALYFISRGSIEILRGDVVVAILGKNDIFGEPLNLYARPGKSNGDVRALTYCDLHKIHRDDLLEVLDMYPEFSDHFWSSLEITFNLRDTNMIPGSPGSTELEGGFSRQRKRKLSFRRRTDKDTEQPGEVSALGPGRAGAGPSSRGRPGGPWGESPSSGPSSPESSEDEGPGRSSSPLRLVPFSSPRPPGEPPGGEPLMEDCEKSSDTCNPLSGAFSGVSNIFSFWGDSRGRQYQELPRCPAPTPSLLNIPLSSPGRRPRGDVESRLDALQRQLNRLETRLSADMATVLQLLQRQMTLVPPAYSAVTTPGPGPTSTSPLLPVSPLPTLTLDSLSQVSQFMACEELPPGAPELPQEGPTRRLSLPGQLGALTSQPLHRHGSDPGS

SMILES | hERG current change (%, negative = inhibition) at 10uM
CCc1noc(C)c1C(=O)N1CCCC(N2CCN(c3ccc(F)cc3)CC2)C1 (stereo not shown) | -27.2%
O=C(Nc1nnc(-c2ccc3c(c2)CCCC3)o1)C1COc2ccccc2O1 (stereo not shown) | 2.84%
COc1ccc2c(c1OC)C(=O)N(c1cccc(C(F)(F)F)c1)C2 | 1.21%
Cc1csc(NC(=O)CSc2nc3nc(C)cc(C)n3n2)n1 | -21.4%
Cc1ccc(C(=O)NCC(=O)OCC(=O)Nc2cccc(S(=O)(=O)N3CCCC3)c2)cc1C | -21.7%
Clc1ccc(CSc2nnc(-c3c[nH]c4ccccc34)o2)cc1 | 18.5%
CCc1nnc(NC(=O)c2nc3nccc(C)n3n2)s1 | 1.54%
COc1ccc(OCCC(=O)OCC(=O)Nc2cccc(S(=O)(=O)N3CCOCC3)c2)cc1 | -18.6%
O=C(COC(=O)CCOc1ccccc1)NCCC1=CCCCC1 | 17.9%
Cc1cc(C(=O)Nc2ccccc2C#N)n(-c2ccccc2)n1 | 4.37%
Br.Cc1nn2cc(-c3ccc(Cl)cc3)nc2s1 | 2.21%
Cc1ccc(S(=O)(=O)N(Cc2n[nH]c(=S)n2-c2ccccc2)c2ccccc2)cc1 | -19.1%
COc1ccc(NC(=O)NN(C(=O)c2ccccc2)C(C)(C)C)cc1 | -0.424%
COc1ccc(NS(=O)(=O)c2cccc(C(=O)NCCCN3CCCC3=O)c2)cc1 | 17.9%
CC(NC(=O)COc1ccccc1)C(c1ccccc1)N1CCN(C)CC1 (stereo not shown) | -9.29%
Cc1ccc(S(=O)(=O)N2CCOCC2)cc1C(=O)Nc1cccc(S(=O)(=O)N2CCCC2)c1 | -38.3%
Cc1cccc(Oc2cc(NC(=O)c3ccccc3)cc([N+](=O)[O-])c2)c1 | 3.71%
C[C@@H]1[C@@H](Sc2ccccc2)CC(=O)O[C@@H]1c1ccc(-c2ccccc2)cc1 | 10.1%
O=C(CN(c1ccccc1)S(=O)(=O)c1ccc(F)cc1)NC1CCS(=O)(=O)C1 (stereo not shown) | 5.22%
O=C(Nc1ccc(F)cc1F)c1ccc2nc(N3CCOCC3)sc2c1 | -3.34%
COc1cc(NC(=O)c2cccnc2)c(OC)cc1NC(=O)c1ccc(Br)cc1 | 3.53%
O=S(=O)(c1ccccc1)N1CCN=C1SCc1ccccc1 | -19.3%

SMILES | hERG current change (%, negative = inhibition) at 10uM
O=C(CCCCn1c(=O)c2ccccc2n(CC(=O)NC2CCCC2)c1=O)NCc1ccco1 | -15.6%
O=C(Nc1ccnn1C1CCN(Cc2cccc(OCCO)c2)CC1)C1CCCC1 | -24.8%
CC(=O)N1CCN(c2ccc(NC(=O)c3cccc([N+](=O)[O-])c3)cc2)CC1 | -3.59%
COc1ccc(-c2coc3cc(OC)cc(OC)c3c2=O)cc1 | 6.69%
CCOCCCNC(=S)N1C2CCC1CC(NC(=O)Nc1ccc(C(=O)OCC)cc1)C2 (stereo not shown) | 13.7%
CCSc1nnc(NC(=O)c2ccc3c(c2)OCO3)s1 | -7.13%
O=C(Cc1cccc(C(F)(F)F)c1)Nc1ccccc1 | 8.89%
CCOC(=O)C1=C(C)OC(N)=C(C(=O)OCC)C1c1cccnc1 (stereo not shown) | -14.7%
CCC(CC)NC(=O)c1ccccc1Oc1ccccc1 | 0.274%
Fc1ccc(-c2nnc(-c3ccc(Cl)cc3)o2)cc1 | 15.4%
Cc1nnc(SCC(=O)N2CCc3ccccc32)s1 | 0.225%
CC(=O)NCC(=O)NC1CC(C)(C)Cc2c1cnn2-c1ccccc1 (stereo not shown) | 12.4%
CCc1ccccc1N1CSC2=C(C#N)C(c3cc(OC)c(OC)cc3OC)CC(=O)N2C1 (stereo not shown) | 2.71%
O=C(COc1ccc(Cl)cc1Cl)NN1C(=O)/C(=C\c2ccc(Cl)cc2)SC1=S | 17.2%
O=Cc1cccn1-c1cccnc1 | 3.86%
CCN(CC)S(=O)(=O)c1ccc(N2CC(C(=O)NCCc3ccc(Cl)cc3)CC2=O)cc1 (stereo not shown) | -26.6%
CCCCNC(=O)Cn1c2c(c(-c3ccccc3Cl)cc1=O)CCC2 | -23.5%
O=C(OCC(=O)N1CCCC1=O)c1cc(S(=O)(=O)N2CCOCC2)ccc1Cl | -22.9%
CCOC(=O)[C@H]1[C@H]2COc3ccc(Br)cc3[C@@H]2N2C(=O)c3cc(F)c(F)cc3NC(=O)[C@@]12C | -3.74%
CCN(CC)C(=O)c1ccc(COc2ccccc2Br)o1 | -8.22%
COc1ccc(-c2cc(C)no2)cc1S(=O)(=O)Nc1cccc(C)c1 | 10.2%
CCCn1c(SCC(=O)N2CCN(CC)CC2)nc2c1c(=O)n(C)c(=O)n2C | 12.9%

SMILES | hERG current change (%, negative = inhibition) at 10uM
O=S(=O)(NCC1(N2CCOCC2)CCCCC1)c1ccc(Cl)cc1C(F)(F)F | -0.581%
Cc1cccn2c(=O)c3cc(C(=O)N4CCCCC4C)sc3nc12 (stereo not shown) | -0.789%
O=C(CCc1ccccc1)Nc1cc(C(F)(F)F)ccc1Cl | 1.66%
COCCCNC(=O)c1c(NC(=O)c2ccccc2)n(Cc2ccccc2)c2nc3ccccc3nc12 | -4%
Cc1cc(-c2n[nH]c(=S)n2/N=C/c2cccs2)n[nH]1 | 5.42%
O=C(O)C1C2C=CC(C2)C1C(=O)OCc1ccccc1 (stereo not shown) | 7.83%
CCOC(=O)CNC(=O)CSc1nnc(-c2cccc(OC)c2)n1CC | 7.24%
COc1ccc(OC)c(C(=O)COC(=O)CNC(=O)C2CCCCC2)c1 | 14.9%
COc1ccc(-c2nnn(CC(=O)N(Cc3cccs3)C(C)C(=O)NC3CCCC3)n2)cc1OC (stereo not shown) | -37.7%
COc1ccccc1C(=O)N1CCN(CCNC(=O)C(=O)Nc2ccc(Br)c(C)c2)CC1 | -48.8%
CC(C)N=C(Nc1cccnc1)c1ccccc1 | 21.9%
CC(C)Cn1c(/C=C/c2ccccc2)nc2ccccc21 | -42.2%
Cc1c(N=c2scc(-c3ccccc3)n2CCO)c(=O)n(-c2ccccc2)n1C | 5.72%
COC(=O)c1c(N2C(=O)[C@H]3[C@@H](C2=O)[C@]2(C(=O)Nc4c(C)cc(C)cc42)N2CCC[C@@H]32)sc(C)c1C | 9.78%
Br.CCCCn1c(=N)n(CC(=O)c2ccc(OC)cc2)c2ccccc21 | -73.6%
CCCn1c(SCC(=O)N2CCCc3ccccc32)nc2c1c(=O)n(C)c(=O)n2C | -18%
CC(C)N(CCn1c(SCC(=O)N2CC(=O)Nc3ccccc32)nc2ccccc2c1=O)C(C)C | -76.6%
CCCNC(=O)NC(=O)CSc1ncc(C(F)(F)F)cc1Cl | 12.6%
COc1ccc(-n2c(=O)c3ccccc3c3ccccc3c2=O)cc1 | -3.19%
COc1ccc(S(=O)(=O)NCc2cc(-c3ccccc3Cl)no2)cc1 | 3.4%
Cc1ccc(S(=O)(=O)/C=C2\NC(=O)CS2)cc1 | 3.46%
CC(C)OC(=O)C(C)Nc1ccc(F)c(Cl)c1 (stereo not shown) | -1.65%

SMILES | hERG current change (%, negative = inhibition) at 10uM
COc1ccc(C(=O)N2CCN(c3ccc(NC(=O)Cc4ccccc4)cc3)CC2)cc1 | -31.8%
CCCc1nc(N2CCN(C)CC2)c2sc(=S)n(-c3ccccc3)c2n1 | 6.76%
Cc1ccc(N2C(=O)N3[C@H](c4cccc(C)c4)[C@@H]4C(=O)N(Cc5ccccc5)C(=O)[C@@H]4[C@]3(C)C2=O)cc1 | 10.3%
Cn1cc(C(=O)NP(=O)(N2CCOCC2)N2CCOCC2)c2ccccc21 | 29.7%
CCc1nccn1CCC(=O)N1CCCC(N2CCN(c3ccccc3C)CC2)C1 (stereo not shown) | -10.3%
O=C(N/N=C/c1ccc(-c2cccc(C(F)(F)F)c2)o1)c1ccccc1O | 3.25%
CC1(C)CC(=O)C/C(=N\NC(=O)CCc2ccc(S(=O)(=O)N3CCOCC3)cc2)C1 | 7.04%
O=C(COc1ccccc1)Nc1ccc2c(c1)C(=O)N(CC1CCCO1)C2=O (stereo not shown) | 6.03%
CCOC(=O)N1CCN(C(=O)c2cc3cc(OC)c(OC)cc3[nH]2)CC1 | 5.96%
CCc1ccc2[nH]c(C(=O)Nc3ccc4c(c3)OCO4)cc2c1 | 18.8%
O=S1(=O)CCO[C@H]2Cc3ccccc3[C@H]2N1Cc1ccccc1F | -9.34%
Nc1n[nH]c(-c2ccc([N+](=O)[O-])cc2[N+](=O)[O-])n1 | 15.4%
CCOc1ccc(S(=O)(=O)Nc2ncn[nH]2)cc1 | 6.66%
COc1ccc2c(Cl)c(C(=O)N/N=C/c3cccnc3)sc2c1 | 13%
COc1ccc2nc(NC(=O)CN3C(=O)NC4(CCCCC4)C3=O)sc2c1 | 14.2%
COC(=O)c1cccc(NC(=O)CSc2nnnn2C)c1 | 19.4%
O=C(NC(=S)NNC(=O)c1cnccn1)c1ccc(F)cc1 | 12.6%
C=C1CCN([C@@H](Cc2ccccc2)C(=O)NCc2ccc(Cl)c(Cl)c2)S(=O)(=O)c2ccccc21 | 10.8%
CC(SCc1ccccc1)C(=O)Nc1ccccc1Br (stereo not shown) | -1.28%
